Results from the supplement of paper PMC5499739.
Whole data set: some 16,000 sequences, median “Z-score” near -0.37, cut for the highest 2% near 3.2. Some of the results follow.

These sequences were tested on RBM10 RRM1-ZnF (GST-tagged construct) (assay: RNAcompete 7-mer binding Z-score; higher = stronger binding preference).
Protocol: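 RNAcompete: 20 pmol GST-tagged RBM10 RNA-binding constructs were incubated with a designed RNA pool of about 241,000 sequences up to 41 nt (1.5 nmol) on glutathione beads for 30 min at 4 °C and washed. Bound RNAs were identified by microarray hybridisation. Each RNA 7-mer is scored by a one-sided Z-score of its enrichment, computed over probes that contain the 7-mer within longer pool sequences.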

Sequence | RNAcompete 7-mer binding Z-score
UGAACAA | -0.155
CUUUCGA | -0.75
CCCGCGA | -0.75
UCGCAUG | -0.347
UAAAGUC | -0.457
UCGGCUA | -0.262
AUUCCUU | -0.873
AGUCAGA | -0.0122
CUCUCAA | -0.655
GCGUCGA | -0.158
GGUUGUA | 1.12
ACUUAUU | -0.633
UACAAAA | -0.444
GGAUGUC | 0.897
CCUAUAA | -0.646
CGGGCAU | 0.66
GCGCGAA | -0.331
AGUAAAC | -0.22
GCGACCG | -0.168
GAGAUGU | 0.361
UCCCGUU | -0.75
GAGCACU | -0.422
UCCGCCA | -0.714
AAGUCCC | -0.646

Sequence | RNAcompete 7-mer binding Z-score
ACUUGGC | -0.565
UAUUAUG | -0.0869
UCGAAAU | -0.685
GCGUUCC | -0.558
GCGCAUG | 0.166
CAAUACG | -0.334
GUAUUGC | -0.321
CAAGAUG | -0.0479
CAAAUCC | -0.857
UCGAGUA | -0.321
CGUCUAG | -0.519
GCACAAC | -0.461
ACAUAAU | -0.604
GGAUUUA | 0.621
UAGGAUU | 0.868
CCAACAU | -0.652
CCAGAUG | -0.435
GGCCGUA | -0.246
UGUAUAA | -0.259
GCCACAG | -0.184
GUGCAAA | 0.144
UUAGCAU | -0.418
UCUACCU | -0.909
UGCCUAA | -0.759

Sequence | RNAcompete 7-mer binding Z-score
CCCGUUU | -0.958
GGUAAAU | 1.25
GUCAAAA | -0.347
CGUGCCU | -0.681
ACCCACA | -0.636
AUAGUGU | 0.0625
ACCAAUU | -0.733
GCGCGAU | -0.0155
GGAGCGA | 2.71
AGUUGUU | -0.376
CCAGCCG | -0.542
AUUUGAG | 0.0983
CCCUAAA | -0.587
CGGCUGC | 0.134
CUACUUC | -0.912
AUCGCAA | -0.526
UACAGGU | 0.881
GCUGGCG | 0.521
UGGAGCU | 0.849
GAUGUCU | -0.428
GUAACUU | -0.392
CCCUUCU | -0.675
CCGUACG | -0.513
GUCCGAC | -0.662

Sequence | RNAcompete 7-mer binding Z-score
AGUCCCU | -0.711
CCUAGUA | -0.431
UUCACCA | -0.86
AUCAAGC | -0.626
GCUUAUG | -0.233
ACUUUGG | -0.35
CAGACGA | 0.27
UAAAGAG | 0.319
UAUCGCG | -0.383
UUUGCGG | 0.131
UUGGGUC | 1.04
CGGUCCA | -0.633
GAUCUGA | -0.318
CACCGAG | -0.113
UACAAUG | -0.347
UAGGUUG | 2.09
UUUGUGG | 1.35
CUGUUAA | -0.779
CGCGAAA | -0.415
CCGCCGU | -0.519
UUGCACG | -0.136
GUACUUC | -0.74
AGGAUGG | 3.77
CCUCUGA | -0.789

Sequence | RNAcompete 7-mer binding Z-score
GACGCGG | 0.755
CACCAGG | -0.00571
AGCUACG | -0.113
GUUAGGU | 1.86
UGAGUGU | 0.413
UCCAUUA | -0.75
GGACAUC | 0.267
UACCGUU | -0.714
CUUGCAG | -0.733
AGGUUUG | 1.32
GUUCAGG | 0.683
CUUAAGU | -0.639
AUGACUG | -0.00246
CCUGUGA | -0.62
CCGGGUU | 0.647
CUUCACG | -0.798
UCUUAGA | -0.594
ACAGCUA | -0.503
AUGGAGU | 2.63
AAACGAG | 0.303
UACGAGA | -0.246
UGACCCA | -0.5
CGUGCCG | -0.415
GAGCGAA | 0.823

Sequence | RNAcompete 7-mer binding Z-score
ACGCAUG | -0.0804
GCACGCC | -0.467
GCUGACG | 0.313
CAAGUAU | -0.285
AUAUAUU | -0.652
CAUAUAU | -0.672
GCGGCUC | 0.0105
UAAACGC | -0.542
AUAUUGA | -0.292
AAACUAG | -0.327
UACGCCC | -0.655
GUAUUCC | -0.392
UGAACCA | -0.409
GAGUGCG | 1.42
AGUGGCU | 0.547
GGAAGCU | 0.797
CCAAGUU | -0.701
AAAUCAC | -0.591
UUCGUUU | -0.548
UAAUGAU | -0.402
AUAUUAC | -0.655
CUGACAA | -0.457
CACGCCA | -0.623
GCAUCUU | -0.811

Sequence | RNAcompete 7-mer binding Z-score
ACGGGUA | 2.05
CUUUCCU | -0.906
GCCAGAC | -0.386
UCCGUCG | -0.425
GCGCAUA | -0.386
GUAUCAU | -0.288
UGGUAUU | 0.326
GUCUCCU | -0.584
CAGCUGU | -0.548
CGAAGAC | -0.542
CAUUUCA | -0.85
UUACGGU | -0.0317
ACCAGAU | -0.597
UCGAUCA | -0.49
CGCGAUG | -0.0999
UCGUCUG | -0.623
UUCAGAC | -0.652
AUCCGUG | -0.72
ACCAGGA | 0.823
UCAACAA | -0.604
GUGUCCC | -0.103
GUUUCAA | -0.594
GUUAUCG | 0.0885
CAACAUU | -0.639

Sequence | RNAcompete 7-mer binding Z-score
CAACUGG | 0.0528
ACAAUCU | -0.889
CGUGCGG | 1.09
CUGGCUA | -0.402
UUAUUAG | -0.311
AAACCGU | -0.72
GGGCUGA | 1.46
UCUAUGU | -0.581
ACUAAGA | -0.324
CCCAACC | -0.613
AGGGGGC | 1.83
AUCUAUU | -0.668
UAUUGCA | -0.48
CCGAGUC | -0.772
AGCGUCG | -0.035
AACCAUU | -0.87
CCUAGUC | -0.652
CAUAAUG | -0.217
CCUACGC | -0.672
CGCAAUA | -0.415
UCGUACA | -0.448
GGACCGU | -0.142
ACGAUUC | -0.675
GACGCCG | -0.717

Sequence | RNAcompete 7-mer binding Z-score
AGAGAUU | -0.126
GCAGUAA | 0.339
ACCCCCA | -0.331
UUGCGCU | -0.73
CAUGAAG | 0.03
GACCUAG | -0.295
UACGGUC | -0.578
UAACUUC | -0.727
CUGACAG | -0.142
CACCGGA | -0.0772
GGGGUGA | 4.16
UGGUGUG | 2.77
CGCCAAU | -0.613
UGUCCGC | -0.62
ACCACCC | -0.483
CGCUACC | -0.724
AAGGUCG | 1.76
GAUCGAU | -0.298
AACAGAU | -0.0902
AGAGCGU | -0.201
CGGUUCC | -0.366
CAGGGGA | 2.99
ACGUUAU | -0.448
CUCGCCC | -0.412

Sequence | RNAcompete 7-mer binding Z-score
CCACCAC | -0.227
AUAGAUC | -0.188
GACUUAA | -0.591
UUCCACA | -0.662
CUGAGUC | -0.649
GUAAGCU | 0.0625
UCAUUUU | -0.86
AGGCGGU | 0.862
AUCGAGG | 1.07
CGAUACG | -0.22
CGUUGUC | -0.568
GAGGGUU | 3.03
CGCUGAG | -0.158
UCCUGUC | -0.776
GAGUCCG | -0.428
AGUCCCA | -0.714
CGUAACA | -0.262
CUUUCGG | -0.565
